Assay results published in US20090136523A1.

How the values were obtained:
Experiment in all cases: peptide microarray
peptide 10 (human) = biological target: peptide 10 (human)
peptide 101 (human) = biological target: peptide 101 (human)
peptide 103 (human) = biological target: peptide 103 (human)
peptide 105 (human) = biological target: peptide 105 (human)
peptide 113 (human) = biological target: peptide 113 (human)
peptide 114 (human) = biological target: peptide 114 (human)
peptide 115 (human) = biological target: peptide 115 (human)
peptide 118 (human) = biological target: peptide 118 (human)
peptide 12 (human) = biological target: peptide 12 (human)
peptide 120 (human) = biological target: peptide 120 (human)
peptide 128 (human) = biological target: peptide 128 (human)
peptide 131 (human) = biological target: peptide 131 (human)
peptide 132 (human) = biological target: peptide 132 (human)
peptide 14 (human) = biological target: peptide 14 (human)
peptide 15 (human) = biological target: peptide 15 (human)
peptide 17 (human) = biological target: peptide 17 (human)
peptide 18 (human) = biological target: peptide 18 (human)
peptide 19 (human) = biological target: peptide 19 (human)
peptide 20 (human) = biological target: peptide 20 (human)
peptide 23 (human) = biological target: peptide 23 (human)
peptide 24 (human) = biological target: peptide 24 (human)
peptide 27 (human) = biological target: peptide 27 (human)
peptide 29 (human) = biological target: peptide 29 (human)
peptide 30 (human) = biological target: peptide 30 (human)
peptide 32 (human) = biological target: peptide 32 (human)
peptide 35 (human) = biological target: peptide 35 (human)
peptide 36 (human) = biological target: peptide 36 (human)
peptide 37 (human) = biological target: peptide 37 (human)
peptide 39 (human) = biological target: peptide 39 (human)
peptide 4 (human) = biological target: peptide 4 (human)
peptide 40 (human) = biological target: peptide 40 (human)
peptide 41 (human) = biological target: peptide 41 (human)
peptide 42 (human) = biological target: peptide 42 (human)
peptide 45 (human) = biological target: peptide 45 (human)
peptide 47 (human) = biological target: peptide 47 (human)
peptide 48 (human) = biological target: peptide 48 (human)
peptide 49 (human) = biological target: peptide 49 (human)
peptide 50 (human) = biological target: peptide 50 (human)
peptide 53 (human) = biological target: peptide 53 (human)
peptide 55 (human) = biological target: peptide 55 (human)
peptide 56 (human) = biological target: peptide 56 (human)
peptide 57 (human) = biological target: peptide 57 (human)
peptide 59 (human) = biological target: peptide 59 (human)
peptide 60 (human) = biological target: peptide 60 (human)
peptide 62 (human) = biological target: peptide 62 (human)
peptide 63 (human) = biological target: peptide 63 (human)
peptide 66 (human) = biological target: peptide 66 (human)
peptide 7 (human) = biological target: peptide 7 (human)
peptide 70 (human) = biological target: peptide 70 (human)
peptide 75 (human) = biological target: peptide 75 (human)
peptide 77 (human) = biological target: peptide 77 (human)
peptide 79 (human) = biological target: peptide 79 (human)
peptide 82 (human) = biological target: peptide 82 (human)
peptide 83 (human) = biological target: peptide 83 (human)
peptide 85 (human) = biological target: peptide 85 (human)
peptide 86 (human) = biological target: peptide 86 (human)
peptide 87 (human) = biological target: peptide 87 (human)
peptide 9 (human) = biological target: peptide 9 (human)
peptide 91 (human) = biological target: peptide 91 (human)
peptide 94 (human) = biological target: peptide 94 (human)
peptide 98 (human) = biological target: peptide 98 (human)
peptide 99 (human) = biological target: peptide 99 (human)

Mean Signal Value (peptide 10 (human)): 0.0192
Mean Signal Value (peptide 101 (human)): 0.00481
Mean Signal Value (peptide 103 (human)): 0
Mean Signal Value (peptide 105 (human)): 0
Mean Signal Value (peptide 113 (human)): 0.0288
Mean Signal Value (peptide 114 (human)): 0.00481
Mean Signal Value (peptide 115 (human)): 0.0673
Mean Signal Value (peptide 118 (human)): 0
Mean Signal Value (peptide 12 (human)): 0
Mean Signal Value (peptide 120 (human)): 0.0337
Mean Signal Value (peptide 128 (human)): 0.106
Mean Signal Value (peptide 131 (human)): 5.25
Mean Signal Value (peptide 132 (human)): 113
Mean Signal Value (peptide 14 (human)): 0.00962
Mean Signal Value (peptide 15 (human)): 0
Mean Signal Value (peptide 17 (human)): 0.0625
Mean Signal Value (peptide 18 (human)): 0
Mean Signal Value (peptide 19 (human)): 0
Mean Signal Value (peptide 20 (human)): 0.0577
Mean Signal Value (peptide 23 (human)): 0.00481
Mean Signal Value (peptide 24 (human)): 0.00962
Mean Signal Value (peptide 27 (human)): 0.00481
Mean Signal Value (peptide 29 (human)): 2.16
Mean Signal Value (peptide 30 (human)): 6.26
Mean Signal Value (peptide 32 (human)): 0.0192
Mean Signal Value (peptide 35 (human)): 84.7
Mean Signal Value (peptide 36 (human)): 28.2
Mean Signal Value (peptide 37 (human)): 98.2
Mean Signal Value (peptide 39 (human)): 55.7
Mean Signal Value (peptide 4 (human)): 51.3
Mean Signal Value (peptide 40 (human)): 32.2
Mean Signal Value (peptide 41 (human)): 0.0673
Mean Signal Value (peptide 42 (human)): 0
Mean Signal Value (peptide 45 (human)): 0
Mean Signal Value (peptide 47 (human)): 0
Mean Signal Value (peptide 48 (human)): 12.1
Mean Signal Value (peptide 49 (human)): 0.962
Mean Signal Value (peptide 50 (human)): 34.6
Mean Signal Value (peptide 53 (human)): 0.00481
Mean Signal Value (peptide 55 (human)): 124
Mean Signal Value (peptide 56 (human)): 11.7
Mean Signal Value (peptide 57 (human)): 9.67
Mean Signal Value (peptide 59 (human)): 0.683
Mean Signal Value (peptide 60 (human)): 0.0769
Mean Signal Value (peptide 62 (human)): 0.00481
Mean Signal Value (peptide 63 (human)): 8.12
Mean Signal Value (peptide 66 (human)): 0.111
Mean Signal Value (peptide 7 (human)): 20.6
Mean Signal Value (peptide 70 (human)): 1
Mean Signal Value (peptide 75 (human)): 9.38
Mean Signal Value (peptide 77 (human)): 13.7
Mean Signal Value (peptide 79 (human)): 96.4
Mean Signal Value (peptide 82 (human)): 67.8
Mean Signal Value (peptide 83 (human)): 3.64
Mean Signal Value (peptide 85 (human)): 1.02
Mean Signal Value (peptide 86 (human)): 0.524
Mean Signal Value (peptide 87 (human)): 0.0288
Mean Signal Value (peptide 9 (human)): 0.0673
Mean Signal Value (peptide 91 (human)): 2.3
Mean Signal Value (peptide 94 (human)): 0.0433
Mean Signal Value (peptide 98 (human)): 0.00481
Mean Signal Value (peptide 99 (human)): 0.0865
B1: rhuMAb 411 (antibody, human IgG1, kappa)
heavy: EVQLVESGAGVKQPGGTLRLTCTASGFSLTTYGVHWVRQAPGKGLEWVGVIWGDGRTDYDAAFMSRVTISKDTSKSTVYLQMNSLRAEDTAVYYCMRNRHDWFDYWGQGTTVTVSS[letters of human IgG1 constant region left out]
light: DILLTQSPSSLSATPGERATITCRASQGIRNNLNWYQQKPGQAPRLLIYYSSNLQSGVPSRFSGSGSGTDFTLTISRLQPEDVAAYYCQQSIKLPFTFGSGTKVEIKRTVAAPSVFIFPPSDEQLKSGTASVVCLLNNFYPREAKVQWKVDNALQSGNSQESVTEQDSKDSTYSLSSTLTLSKADYEKHKVYACEVTHQGLSSPVTKSFNRGEC
